Experiment [1] deals with T1, Igo1-Pk3 (endogenous Igo1 tagged at the C-terminus with 3 Pk epitopes), from RIM15 wild type cells (budding yeast) (UniProt P53897).
T1 sequence (chain, phosphoserine at 64 (Rim15-dependent)): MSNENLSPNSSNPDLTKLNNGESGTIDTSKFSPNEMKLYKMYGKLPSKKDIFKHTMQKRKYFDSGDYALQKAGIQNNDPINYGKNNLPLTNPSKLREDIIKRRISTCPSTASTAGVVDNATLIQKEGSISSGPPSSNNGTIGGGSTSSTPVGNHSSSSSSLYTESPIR
The experiment is described as follows: co-IP; anti-Pk antibody pre-adsorbed to protein A-sepharose, cleared extracts of yeast cells (cycling, released from alpha factor at 25°C, or hydroxyurea; wild type, rim15Δ, igo1Δ igo2Δ or zds1Δ zds2Δ); lysis buffer 50 mM Tris-Cl pH 7.5, 150 mM NaCl, 10% glycerol, 1 mM EDTA, 1% NP40; western blot. (Immunoblotting shows a protein as a band on a membrane.)

Chains of the proteins cited; added tags and fusions are not shown.
UniProt P23594: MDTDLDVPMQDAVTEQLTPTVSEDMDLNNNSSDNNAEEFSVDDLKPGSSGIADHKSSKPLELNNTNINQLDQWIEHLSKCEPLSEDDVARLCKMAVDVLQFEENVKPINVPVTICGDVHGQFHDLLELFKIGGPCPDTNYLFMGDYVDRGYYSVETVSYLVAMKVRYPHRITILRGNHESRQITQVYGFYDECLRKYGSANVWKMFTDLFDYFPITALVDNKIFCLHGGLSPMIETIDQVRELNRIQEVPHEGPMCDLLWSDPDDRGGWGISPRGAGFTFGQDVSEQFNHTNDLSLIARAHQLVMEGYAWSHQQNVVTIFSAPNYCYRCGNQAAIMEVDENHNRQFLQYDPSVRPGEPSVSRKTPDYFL
UniProt P38903: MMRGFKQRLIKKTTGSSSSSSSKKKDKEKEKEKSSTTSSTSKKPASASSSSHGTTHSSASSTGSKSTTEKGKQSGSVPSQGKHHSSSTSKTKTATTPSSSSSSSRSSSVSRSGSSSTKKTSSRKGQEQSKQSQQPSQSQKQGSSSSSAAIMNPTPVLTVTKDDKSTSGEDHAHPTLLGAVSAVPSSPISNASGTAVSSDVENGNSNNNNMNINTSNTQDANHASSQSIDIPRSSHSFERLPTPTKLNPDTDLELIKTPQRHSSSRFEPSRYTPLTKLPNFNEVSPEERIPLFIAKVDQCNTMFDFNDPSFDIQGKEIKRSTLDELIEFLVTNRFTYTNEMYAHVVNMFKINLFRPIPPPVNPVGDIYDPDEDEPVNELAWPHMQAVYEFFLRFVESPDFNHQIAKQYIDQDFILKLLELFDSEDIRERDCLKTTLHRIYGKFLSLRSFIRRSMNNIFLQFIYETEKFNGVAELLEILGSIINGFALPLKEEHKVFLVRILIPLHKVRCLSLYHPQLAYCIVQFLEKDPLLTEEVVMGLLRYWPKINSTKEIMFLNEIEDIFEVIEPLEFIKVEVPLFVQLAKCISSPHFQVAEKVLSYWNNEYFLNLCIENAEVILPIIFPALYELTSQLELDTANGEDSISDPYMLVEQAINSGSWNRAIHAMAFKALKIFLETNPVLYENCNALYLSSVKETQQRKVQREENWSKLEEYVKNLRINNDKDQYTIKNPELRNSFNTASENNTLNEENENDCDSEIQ

The target in experiment [2] is T2, HA-Cdc55 expressed at endogenous levels from the CDC55 promoter (budding yeast) (UniProt Q00362).
T2 sequence: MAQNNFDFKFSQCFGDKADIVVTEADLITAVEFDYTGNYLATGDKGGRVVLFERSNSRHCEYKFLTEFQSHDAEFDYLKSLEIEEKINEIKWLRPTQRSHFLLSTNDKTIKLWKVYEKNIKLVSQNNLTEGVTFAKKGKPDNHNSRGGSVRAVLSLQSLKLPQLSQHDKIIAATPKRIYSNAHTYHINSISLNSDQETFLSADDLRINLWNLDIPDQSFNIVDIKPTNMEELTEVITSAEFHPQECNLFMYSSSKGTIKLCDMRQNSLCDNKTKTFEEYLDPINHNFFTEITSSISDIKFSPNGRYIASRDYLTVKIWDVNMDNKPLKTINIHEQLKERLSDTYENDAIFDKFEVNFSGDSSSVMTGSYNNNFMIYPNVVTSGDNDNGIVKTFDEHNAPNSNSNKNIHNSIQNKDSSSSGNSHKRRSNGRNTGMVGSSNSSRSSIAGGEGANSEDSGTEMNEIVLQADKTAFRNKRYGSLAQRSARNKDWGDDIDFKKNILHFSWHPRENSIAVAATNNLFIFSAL
The experiment is described as follows: co-IP; HA-tagged Cdc55 immunoprecipitated with anti-HA (12CA5) cross-linked to BSA-coated protein A-Sepharose from whole-cell extracts of wild type or igo1Δ igo2Δ yeast; immunoblot for Pph21 and Tpd3.

A further experiment addresses T3, Zds1-Pk6 (budding yeast) (UniProt P50111).
T3 sequence: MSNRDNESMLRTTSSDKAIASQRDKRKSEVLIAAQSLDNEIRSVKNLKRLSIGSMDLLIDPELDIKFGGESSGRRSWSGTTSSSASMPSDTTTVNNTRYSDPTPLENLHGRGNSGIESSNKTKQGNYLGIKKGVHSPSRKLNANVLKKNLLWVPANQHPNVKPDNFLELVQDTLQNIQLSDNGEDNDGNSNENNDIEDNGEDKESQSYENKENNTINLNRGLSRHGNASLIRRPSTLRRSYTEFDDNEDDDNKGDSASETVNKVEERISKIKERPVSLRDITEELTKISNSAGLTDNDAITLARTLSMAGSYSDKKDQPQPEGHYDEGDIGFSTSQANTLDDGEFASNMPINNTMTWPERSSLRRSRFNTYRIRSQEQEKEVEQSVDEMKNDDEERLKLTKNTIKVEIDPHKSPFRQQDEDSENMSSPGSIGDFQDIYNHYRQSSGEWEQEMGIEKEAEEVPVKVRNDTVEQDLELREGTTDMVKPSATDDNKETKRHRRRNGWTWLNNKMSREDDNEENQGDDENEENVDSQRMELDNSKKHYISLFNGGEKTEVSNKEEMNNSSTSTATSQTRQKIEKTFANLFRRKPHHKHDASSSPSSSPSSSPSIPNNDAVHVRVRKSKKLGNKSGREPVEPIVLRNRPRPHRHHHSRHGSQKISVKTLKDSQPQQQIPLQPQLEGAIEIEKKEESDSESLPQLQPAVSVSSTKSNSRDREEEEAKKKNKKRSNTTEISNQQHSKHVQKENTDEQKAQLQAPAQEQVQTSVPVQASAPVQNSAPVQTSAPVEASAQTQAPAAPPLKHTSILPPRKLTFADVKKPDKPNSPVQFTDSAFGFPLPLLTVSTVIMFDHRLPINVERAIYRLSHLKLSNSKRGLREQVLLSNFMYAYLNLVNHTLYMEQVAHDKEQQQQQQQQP
The experiment is described as follows: co-IP; anti-Pk antibody pre-adsorbed to protein A-sepharose, cleared extracts of yeast cells (cycling, released from alpha factor at 25°C, or hydroxyurea; wild type, rim15Δ, igo1Δ igo2Δ or zds1Δ zds2Δ); lysis buffer 50 mM Tris-Cl pH 7.5, 150 mM NaCl, 10% glycerol, 1 mM EDTA, 1% NP40; western blot.

For experiment [3], the target named is T4, Igo1-S64A-myc8 (budding yeast) (UniProt P53897).
T4 sequence: T1 sequence (chain, phosphoserine at 64 (Rim15-dependent)) with S64A
The experiment is described as follows: co-IP; co-immunoprecipitation of HA3-Cdc55 with Igo1-myc8 or Igo1-S64A-myc8 from yeast cells, in the presence or absence of RIM15; which of the two was precipitated is not stated.

The target of experiment [4] is T5, Igo1-myc8 (budding yeast) (UniProt P53897).
T5 sequence (chain, phosphoserine at 64 (shown by Phos-tag gels, lost in rim15Δ and S64A controls)): T1 sequence (chain, phosphoserine at 64 (Rim15-dependent))
The description is as above.

Residue numbers refer to the chain shown, from its start. Results are given in words; binding and its absence hold for the method and conditions named. Binding seen in cells or lysates may run through a third protein. Some entries that bind do so weakly or less than the wild type. For some assays here: Where a sequence is shown, tags or fusion partners need not be part of it.

In the case of “Pph21 (from UniProt P23594 1-369) (enzyme)”, the binding entry in experiment [1] and in experiment [2] was “binds” each time.

Take Rts1-HA3 (from UniProt P38903 1-757): the binding entry in experiment [1] is given as “no binding”.

B1: HA3-Cdc55 (protein, UniProt Q00362 1-526)
chain: T2 sequence
As to B1, the binding result is recorded as “binds” in the experiment with Zds1-Pk6 (budding yeast), “binds” in experiment [1], “binds weakly” in experiment [3] and “binds” in experiment [4].

B2: Tap42 (protein, UniProt Q04372 1-366)
chain: MASVTEQFNDIISLYSTKLEHTSLRQDSPEYQGLLLSTIKKLLNLKTAIFDRLALFSTNETIDDVSTASIKFLAVDYYLGLLISRRQSNDSDVAQRQSMKLIYLKKSVESFINFLTLLQDYKLLDPLVGEKLGNFKDRYNPQLSELYAQPKNNKDLSGAQLKRKEKIELFQRNKEISTKLHCLELELKNNDEDHDHDELLRELYLMRLHHFSLDTINNIEQNLFECEMLSNFLKNSVHEVKSSGTQIRKESNDDDSTGFTDKLENINKPLIDKKGQVLRNFTLVDKRQQLQQKVRGYGQYGPTMSVEEFLDKEFEEGRVLQGGEEPEQAPDEENMDWQDRETYKAREWDEFKESHAKGSGNTMNRG
With B2, the binding result in experiment [1] is “binds”.

(Values after publication PMC3701715.)
